The list shows a part of the results. The exact form of the protein is not confirmed.

The test concerns the target GST-SBP-ILF3 (Homo sapiens) (UniProt Q12906). Nature of the test: targeted RNA Bind-n-Seq. Particulars: RBNS binding buffer: 25 mM Tris pH 7.5, 150 mM KCl, 3 mM MgCl2, 0.1% Tween, 0.5 mg/mL BSA, 1 mM DTT; 27 nM protein, 750 pM RNA pool; temperature not stated; high values mean tight binding; sequences stand for … in GGGUAAAAGCGAGGUGAA…CGGGACAAGUAUUAUGGG
For “UUUUUUUUUUGAGACUGCAACAGUUUCCUG [tttttgagapaired]”, the binding signal (log2 fold change) came out at 0.689. For the sequence “UUUUUUUUUUGAGACGGUCCCCGUCUCCUG [tttttgagapaired]”, the binding signal (log2 fold change) was 0.975. As for “UUUUUUUUUUGAGAGGGUAUCCUUCUCCUA [tttttgagapaired]”, the binding signal (log2 fold change) is 0.0439.

Consider “UUUUUUUUUUGAGACUGGCGCAGUCUCCUA [tttttgagapaired]”, for which the binding signal (log2 fold change) was 0.44. As for “UUUUUUUUUUGAGAUGGAUCCCAUCUCCUG [tttttgagapaired]”, the binding signal (log2 fold change) is 0.291.

In the case of “UUUUUUUUUUGAGACUGUGGCAGUCUCCGG [tttttgagapaired]”, the binding signal (log2 fold change) stood at 0.419. “UUUUUUUUUUGAGACUGAAGCAGUCUCCAG [tttttgagapaired]”: the binding signal (log2 fold change) was 0.569.

Regarding “GUUGUGUGUGUUGGUACCUAACACACGCAG [gtspaired]”, the binding signal (log2 fold change) was -0.594. For the sequence “UUUUUUUUUUGAGAUGGGACCCAUCUCCUG [tttttgagapaired]”, the binding signal (log2 fold change) stood at 0.402.

In the case of “UUUUUUUUUUGAGACGGUAGCCGUCUCCGG [tttttgagapaired]”, the binding signal (log2 fold change) turned out to be 0.611.

Consider “UUUUUUUUUUGAGACGGGAACCGUUUCCUA [tttttgagapaired]”, for which the binding signal (log2 fold change) was 0.321. With “UUUUUUUUUUGAGACUGGUUCAGUCUCCAG [tttttgagapaired]”, the binding signal (log2 fold change) worked out at 0.251. In the case of “UUUUUUUUUUGAGAGCGGUCCGCUCUCCUG [tttttgagapaired]” it was 0.844. In the case of “UUUUUUUUUUGAGACUGGAACAGUCUCCUA [tttttgagapaired]”, the binding signal (log2 fold change) is -0.222. On to “UUUUUUUUUUGAGAGGGUGCCCCUCUCCUG [tttttgagapaired]”, for which the binding signal (log2 fold change) is 0.573. Turning to “UUUUUUUUUUGAGAUGGCAACCAUUUCCAG [tttttgagapaired]”, the binding signal (log2 fold change) stood at 0.449. With “UUUUUUUUUUGAGAUGGCAACCAUCUCCAG [tttttgagapaired]”, the binding signal (log2 fold change) is 0.187. With “UUUUUUUUUUGAGAACGGGACGUUCUCCUA [tttttgagapaired]”, the binding signal (log2 fold change) is -0.387. In the case of “UUUUUUUUUUGAGAGCGUAGCGCUCUCCUG [tttttgagapaired]”, the binding signal (log2 fold change) came out at 0.34. In the case of “GUUGUGUGUGUUGGUACCUAACACACACGA [gtspaired]”, the binding signal (log2 fold change) was -0.28. In the case of “UUUUUUUUUUGAGAGGGUCUCCCUCUCCAG [tttttgagapaired]” it was 0.411. Regarding “UUUUUUUUUUGAGACGGGAGCCGUUUCCAG [tttttgagapaired]”, the binding signal (log2 fold change) amounted to 0.608. As for “UUUUUUUUUUGAGAUGGGGGCUAUCUCCUA [tttttgagapaired]”, the binding signal (log2 fold change) turned out to be 0.784. Under “GUGUGUGGUGUUGGACUCUAACACCACGCG [gtspaired]” stands -0.105; under “GUGUGGUGUGUUGGUACCUAACACAUCGCA [gtspaired]”, -0.708.

For “GUUGUGUGUGUUGGCGCCUAACACACACAG [gtspaired]”, the binding signal (log2 fold change) is -0.401. Under “UUUUUUUUUUGAGACGGGCACCGUCUCCUA [tttttgagapaired]” stands 0.243; under “GUGUGUGGUGUUGGUUCCUAACACCGCGCG [gtspaired]”, -0.675; under “UUUUUUUUUUGAGAUGGAGACUAUCUUCUA [tttttgagapaired]”, 0.122. As for “UUUUUUUUUUGAGAACGAGACGUUCUCCAG [tttttgagapaired]”, the binding signal (log2 fold change) turned out to be 0.101. Under “UUUUUUUUUUGAGACGGAGACUGUCUUCUA [tttttgagapaired]” stands 0.879; under “UUUUUUUUUUGAGACUGAGGCAGUUUCCAG [tttttgagapaired]”, 0.606. As for “UUCCUUCUUCCUCCAGUGGAGGGAGAGGGA [ctspaired]”, the binding signal (log2 fold change) was -0.511.

On to “UUUUUUUUUUGAGAAGGAUCCCUUCUCCGG [tttttgagapaired]”, for which the binding signal (log2 fold change) is -0.0228. Regarding “UUUUUUUUUUGAGACGGUGGCCGUCUUCUG [tttttgagapaired]”, the binding signal (log2 fold change) is 0.981. “UUCUUCCUUCCUCCGAGGGAGGAGGGGAGA [ctspaired]”: the binding signal (log2 fold change) is -0.373. In the case of “UUUUUUUUUUGAGAACGGAGCGUUCUCCGG [tttttgagapaired]”, the binding signal (log2 fold change) was 0.279. For the sequence “UUUUUUUUUUGAGACGGGAUCCGUUUCCAG [tttttgagapaired]”, the binding signal (log2 fold change) came out at 0.494.

“UUUUUUUUUUGAGAUCGUAACGAUUUCCAG [tttttgagapaired]”: the binding signal (log2 fold change) turned out to be 0.16.

Regarding “GUGGUGUGUGUUGGCCUCUAACACAUACCG [gtspaired]”, the binding signal (log2 fold change) was -0.754.

Regarding “GUGUGUGGUGUUGGUCUCUAACACCGCGCA [gtspaired]”, the binding signal (log2 fold change) was -0.565. On to “UUUUUUUUUUGAGACUGCAGCAGUCUCCUG [tttttgagapaired]”, for which the binding signal (log2 fold change) turned out to be 0.777. Under “GUGUUGUGUGUUGGACUCUAACACACAGCG [gtspaired]” stands -0.827; under “UUUUUUUUUUGAGACGGCGGCCGUCUCCUA [tttttgagapaired]”, 0.908; under “GGUUGUUGUGUUGGCGCCUAACACAGCAAC [gtspaired]”, -0.368.

With “GUGUGUGGUGUUGGCGUCUAACACCACGCA [gtspaired]”, the binding signal (log2 fold change) was -0.781.

Turning to “UUUUUUUUUUGAGAGGGCUGCCCUCUUCUG [tttttgagapaired]”, the binding signal (log2 fold change) came to 0.941.

Consider “UUUUUUUUUUGAGACUGCUACAGUCUCCGG [tttttgagapaired]”, for which the binding signal (log2 fold change) came out at 0.385. Consider “UUUUUUUUUUGAGAGCGAAGCGCUCUUCUG [tttttgagapaired]”, for which the binding signal (log2 fold change) stood at 0.181.

Regarding “UUUUUUUUUUGAGAUGGCAACCAUCUCCGG [tttttgagapaired]”, the binding signal (log2 fold change) stood at 0.35. In the case of “GUGUGUGGUGUUGGCAUCUAACACCACGCA [gtspaired]” it was -0.603; in that of “GUUGGUGGUGUUGGAUCCUAACACCGCCGA [gtspaired]”, -0.489. Consider “GUGGUGUGUGUUGGCGCCUAACACAUACCG [gtspaired]”, for which the binding signal (log2 fold change) is -0.333. In the case of “UUUUUUUUUUGAGACUGAAACAGUUUCCAG [tttttgagapaired]”, the binding signal (log2 fold change) was 0.189. For “UUUUUUUUUUGAGACCGUAUCGGUCUUCUA [tttttgagapaired]”, the binding signal (log2 fold change) came to 0.257. Take “UUUUUUUUUUGAGACCGCAGCGGUCUUCUA [tttttgagapaired]”: the binding signal (log2 fold change) came to 0.714. In the case of “GUGUGUGGUGUUGGCCUCUAACACCAUAUA [gtspaired]” it was -0.897. “UUUUUUUUUUGAGAGGGAUCCCCUCUCCUG [tttttgagapaired]”: the binding signal (log2 fold change) is 0.334. In the case of “UUUUUUUUUUGAGAGCGUAACGUUCUUCUA [tttttgagapaired]”, the binding signal (log2 fold change) was 0.44. On to “UUUUUUUUUUGAGAGCGAGUCGCUCUUCUG [tttttgagapaired]”, for which the binding signal (log2 fold change) stood at 0.561. On to “UUUUUUUUUUGAGAGUGUGACAUUCUUCUA [tttttgagapaired]”, for which the binding signal (log2 fold change) came out at 0.0461. For the sequence “GUGUGGUGUGUUGGACCCUAACACACUACA [gtspaired]”, the binding signal (log2 fold change) is -0.232. Take “UUUUUUUUUUGAGACGGAACCCGUCUCCUG [tttttgagapaired]”: the binding signal (log2 fold change) stood at 0.41. As to “UUUUUUUUUUGAGAUCGGGACGAUUUCCUA [tttttgagapaired]”, the binding signal (log2 fold change) was 0.572.

With “GUGUGUGGUGUUGGAGCCUAACACCAUACG [gtspaired]”, the binding signal (log2 fold change) is -0.298. Consider “UUUUUUUUUUGAGACUGCUACAGUUUUCUA [tttttgagapaired]”, for which the binding signal (log2 fold change) amounted to 0.038.

“GUGUGGUGUGUUGGAACCUAACACACCGCG [gtspaired]”: the binding signal (log2 fold change) was -0.737. Under “UUUUUUUUUUGAGAGGGUAUCCCUCUCCUG [tttttgagapaired]” stands 0.253.

Take “UUUUUUUUUUGAGACCGUGUCGGUCUCCUG [tttttgagapaired]”: the binding signal (log2 fold change) is 1.12. Turning to “GGUGGUGGUGUUGGCCUCUAACACCAUCGC [gtspaired]”, the binding signal (log2 fold change) was -0.754. Regarding “UUUUUUUUUUGAGAUGGUAGCUAUCUCCUA [tttttgagapaired]”, the binding signal (log2 fold change) amounted to 0.207. For the sequence “GUGUGUGGUGUUGGCGCCUAACACCACGCA [gtspaired]”, the binding signal (log2 fold change) was -0.205. Take “UUUUUUUUUUGAGAACGAUGCGUUCUCCGG [tttttgagapaired]”: the binding signal (log2 fold change) came out at 0.159. “UUUUUUUUUUGAGAGGGGGUCCCUCUCCUA [tttttgagapaired]”: the binding signal (log2 fold change) amounted to 0.73. With “UUUUUUUUUUGAGAUCGAGGCGAUCUCCUG [tttttgagapaired]”, the binding signal (log2 fold change) amounted to 0.498. As to “UUUUUUUUUUGAGAUGGACCCCAUCUCCAG [tttttgagapaired]”, the binding signal (log2 fold change) is 0.796. Regarding “UUUUUUUUUUGAGACCGGUCCGGUCUCCAG [tttttgagapaired]”, the binding signal (log2 fold change) came to 0.487. With “UUUUUUUUUUGAGACGGAGUCUGUCUCCUG [tttttgagapaired]”, the binding signal (log2 fold change) came to 0.722. As for “GUUGGUGGUGUUGGCCCCUAACACCGCCAG [gtspaired]”, the binding signal (log2 fold change) was -0.304. Under “GGUGGUUGUGUUGGCUCCUAACACAAUCGC [gtspaired]” stands -0.624; under “GGUUGGUGUGUUGGUCCCUAACACACCAGC [gtspaired]”, -0.0445; under “UUUUUUUUUUGAGACUGAGGCAGUUUCCGG [tttttgagapaired]”, 0.734. As for “GUGUGGUGUGUUGGAUCCUAACACACUACG [gtspaired]”, the binding signal (log2 fold change) was -0.756. For “UUUUUUUUUUGAGAGCGACACGCUCUUCUA [tttttgagapaired]”, the binding signal (log2 fold change) was 0.154. In the case of “UUUUUUUUUUGAGACUGGCGCAGUCUUCUA [tttttgagapaired]”, the binding signal (log2 fold change) worked out at 0.565. Regarding “UUUUUUUUUUGAGAUGGGGCCCAUCUCCUG [tttttgagapaired]”, the binding signal (log2 fold change) came to 0.786. As for “UUUUUUUUUUGAGACGGCCGCCGUCUCCUA [tttttgagapaired]”, the binding signal (log2 fold change) was 0.918. With “UUUUUUUUUUGAGAGGGCCGCCCUCUCCAG [tttttgagapaired]”, the binding signal (log2 fold change) amounted to 1.11. On to “UUUUUUUUUUGAGAUCGGAACGAUCUCCGG [tttttgagapaired]”, for which the binding signal (log2 fold change) is 0.265. In the case of “GUGGUGUGUGUUGGACUCUAACACAUACCA [gtspaired]” it was -0.321; in that of “UUUUUUUUUUGAGAUCGGGACGAUCUCCUA [tttttgagapaired]”, -0.188. Consider “GUGUGGUGUGUUGGUGUCUAACACAUCGCA [gtspaired]”, for which the binding signal (log2 fold change) is -0.798. As to “UUUUUUUUUUGAGAGCGAUGCGCUCUCCAG [tttttgagapaired]”, the binding signal (log2 fold change) worked out at 0.164. For the sequence “GUGUGUGGUGUUGGCAUCUAACACCGCGCA [gtspaired]”, the binding signal (log2 fold change) is -0.74. With “GGUGGUGGUGUUGGACUCUAACACCAUCGC [gtspaired]”, the binding signal (log2 fold change) is -0.224. As to “GGUGUGUGUGUUGGAUCCUAACACAUAUAC [gtspaired]”, the binding signal (log2 fold change) is -0.668. For the sequence “GUGGUGUGUGUUGGUCCCUAACACACGCCG [gtspaired]”, the binding signal (log2 fold change) was -0.367. Regarding “UUUUUUUUUUGAGACGGCAACUGUCUCCGG [tttttgagapaired]”, the binding signal (log2 fold change) was 0.941.

Consider “UUUUUUUUUUGAGAACGGGUCGUUCUUCUA [tttttgagapaired]”, for which the binding signal (log2 fold change) amounted to 0.188. With “GUGGUUGGUGUUGGCACCUAACACCAGCCG [gtspaired]”, the binding signal (log2 fold change) was -0.725. Under “UUUUUUUUUUGAGACUGGAGCAGUCUCCGG [tttttgagapaired]” stands 0.631; under “UUUUUUUUUUGAGAAGGUAUCCUUCUCCUA [tttttgagapaired]”, -0.0555.

(Values after PMC5892938.)
